Data as given in paper PMC9481563, “Structural insights into the pSer/pThr dependent regulation of the SHP2 tyrosine phosphatase in insulin and CD28 signaling” (Nature Communications, 2022).

Columns and labels:
[1] = test system: SHP2 WT catalytic domain 219–528; test: DIFMUP Michaelis-Menten kinetics, SHP2 WT catalytic domain; type: biochemical, human; conditions: for AVERAGE rate: SHP2 WT catalytic domain
Description: (§1) DIFMUP concentration (μM)
(§2) Source data are provided as a
(§3) lowest calibration points).
(§4) provided as a Source Data file.

[2] = test system: active SHP2 crystallization construct (Δ(219-245)-Δ(315-323)+GSSG); test: DIFMUP Michaelis-Menten kinetics, active SHP2 crystallization construct; type: biochemical, human; conditions: for Slope (DIFMUP kinetics), AVERAGE: SHP2 crystallization construct (active version), slope of fluorescence over 60 points
Description: as §1, §2, §3, §4

[3] = test system: E. coli lysates; test: Background phosphatase activity of E. coli lysates on DIFMUP; type: biochemical; conditions: n = 3 technical repeats
[4] = test system: active SHP2 loop mutant (K364E); conditions: 2.5 nM enzyme, n = 3 technical repeats
[5] = test system: active SHP2 loop inversion (R362E); conditions: 2.5 nM enzyme, n = 3 technical repeats
[6] = test system: H426A catalytic mutant SHP2; conditions: for AVERAGE rate: SHP2 H426A catalytic mutant
[7] = test system: D425A catalytic mutant SHP2; conditions: for AVERAGE rate: SHP2 D425A catalytic mutant (5-fold enzyme)
[8] = test system: SHP2 H426A mut; conditions: different protocol (1 min read intervals, slope fitting to 3 initial points), BioTek plate reader; n = 3
[9] = test system: SHP2 D425A mut; conditions: different protocol (1 min read intervals, slope fitting to 3 initial points), BioTek plate reader; n = 3
[10] = test system: Wild-type SHP2; test: Additional DIFMUP kinetics (BioTek protocol), wild-type SHP2; conditions: different protocol (1 min read intervals, slope fitting to 3 initial points), BioTek plate reader; n = 3 technical replicates
[11] = 2.5 nM enzyme, pH 7.4, n = 3 technical repeats, fitted to 60 points [10 min]
[12] = 2.5 nM enzyme, n = 3 technical repeats
[13] = 2.5 nM enzyme, n = 3 technical repeats, fitted to 60 points [10 min]

Cc1cc(=O)oc2c(F)c(OP(=O)(O)O)c(F)cc12 [DIFMUP]
Km [1, 11]: 85.8 µM
kcat [1, 11]: 7.76 ± 0.61 s⁻¹ and 7.76 s⁻¹
Vmax [1, 12]: 14.47 ± 1.15 AU/tick
AVERAGE rate ([1]; DIFMUP 13.169 uM): 1.988 arb. un.
AVERAGE rate ([1]; DIFMUP 19.753 uM): 2.703 arb. un.
AVERAGE rate ([1]; DIFMUP 29.630 uM): 3.612 arb. un.
AVERAGE rate ([1]; DIFMUP 44.444 uM): 4.820 arb. un.
AVERAGE rate ([1]; DIFMUP 66.667 uM): 5.809 arb. un.
AVERAGE rate ([1]; DIFMUP 100.000 uM): 8.098 arb. un.
Activity @ 100 uM DIFMUP concentration ([1]; WT SHP2 50nM (diluted over 1/1000 from protein stock), Supplementary figure 67, n = 3): 8.10 units / 10 sec
Vmax [2, 12]: 15.53 ± 1.02 AU/tick
Km [2, 13]: 61.6 µM
kcat [2, 13]: 8.33 ± 0.55 s⁻¹ and 8.33 s⁻¹
Slope (DIFMUP kinetics), AVERAGE ([2]; DIFMUP 13.169 uM, average of wells #1-#3 (n = 3)): 2.782
Slope (DIFMUP kinetics) ([2]; DIFMUP 13.169 uM, Well #1 (replicate 1)): 3.041
Slope (DIFMUP kinetics) ([2]; DIFMUP 13.169 uM, Well #2 (replicate 2)): 2.689
Slope (DIFMUP kinetics) ([2]; DIFMUP 13.169 uM, Well #3 (replicate 3)): 2.615
Slope (DIFMUP kinetics), AVERAGE ([2]; DIFMUP 19.753 uM, average of wells #4-#6 (n = 3)): 3.809
Slope (DIFMUP kinetics) ([2]; DIFMUP 19.753 uM, Well #4 (replicate 1)): 4.168
Slope (DIFMUP kinetics) ([2]; DIFMUP 19.753 uM, Well #5 (replicate 2)): 3.323
Slope (DIFMUP kinetics) ([2]; DIFMUP 19.753 uM, Well #6 (replicate 3)): 3.937
Slope (DIFMUP kinetics), AVERAGE ([2]; DIFMUP 29.630 uM, average of wells #7-#9 (n = 3)): 5.066
Slope (DIFMUP kinetics) ([2]; DIFMUP 29.630 uM, Well #7 (replicate 1)): 5.203
Slope (DIFMUP kinetics) ([2]; DIFMUP 29.630 uM, Well #8 (replicate 2)): 4.962
Slope (DIFMUP kinetics) ([2]; DIFMUP 29.630 uM, Well #9 (replicate 3)): 5.032
Slope (DIFMUP kinetics), AVERAGE ([2]; DIFMUP 44.444 uM, average of wells #10-#12 (n = 3)): 5.531
Slope (DIFMUP kinetics) ([2]; DIFMUP 44.444 uM, Well #10 (replicate 1)): 5.910
Slope (DIFMUP kinetics) ([2]; DIFMUP 44.444 uM, Well #11 (replicate 2)): 4.893
Slope (DIFMUP kinetics) ([2]; DIFMUP 44.444 uM, Well #12 (replicate 3)): 5.789
Slope (DIFMUP kinetics), AVERAGE ([2]; DIFMUP 66.667 uM, average of wells #13-#15 (n = 3)): 7.955
Slope (DIFMUP kinetics) ([2]; DIFMUP 66.667 uM, Well #13 (replicate 1)): 8.503
Slope (DIFMUP kinetics) ([2]; DIFMUP 66.667 uM, Well #14 (replicate 2)): 7.526
Slope (DIFMUP kinetics) ([2]; DIFMUP 66.667 uM, Well #15 (replicate 3)): 7.836
Slope (DIFMUP kinetics), AVERAGE ([2]; DIFMUP 100.000 uM, average of wells #16-#18 (n = 3)): 9.899
Slope (DIFMUP kinetics) ([2]; DIFMUP 100.000 uM, Well #16 (replicate 1)): 9.510
Slope (DIFMUP kinetics) ([2]; DIFMUP 100.000 uM, Well #17 (replicate 2)): 9.633
Slope (DIFMUP kinetics) ([2]; DIFMUP 100.000 uM, Well #18 (replicate 3)): 10.553
Activity @ 100 uM DIFMUP concentration ([3]; Undiluted lysate, 2 μl sample to 40 μl reaction mix, 30 data points): 2.33 units / 10 sec
Activity @ 100 uM DIFMUP concentration ([3]; lysate 1/100 dilution): -0.38 units / 10 sec
Activity @ 100 uM DIFMUP concentration ([3]; lysate 1/1000 dilution): -0.46 units / 10 sec
Vmax [4]: 63.41 ± 6.17 AU/tick
Km ([4]; fitted to 30 points [5 min]): 126 µM
kcat ([4]; fitted to 30 points [5 min]): 33.99 ± 3.31 s⁻¹ and 33.99 s⁻¹
Vmax [5]: 90.10 ± 17.75 AU/tick
Km ([5]; fitted to 30 points [5 min]): 409 µM
kcat ([5]; fitted to 30 points [5 min]): 48.30 ± 9.52 s⁻¹ and 48.30 s⁻¹
Vmax [6, 12]: 5.10 ± 0.21 AU/tick
Km [6, 13]: 76.2 ± 3.72 µM
kcat [6, 13]: 2.73 ± 0.11 s⁻¹
AVERAGE rate ([6]; DIFMUP 13.169 uM): 0.752 arb. un.
AVERAGE rate ([6]; DIFMUP 19.753 uM): 1.005 arb. un.
AVERAGE rate ([6]; DIFMUP 29.630 uM): 1.390 arb. un.
AVERAGE rate ([6]; DIFMUP 44.444 uM): 1.911 arb. un.
AVERAGE rate ([6]; DIFMUP 66.667 uM): 2.416 arb. un.
AVERAGE rate ([6]; DIFMUP 100.000 uM): 2.837 arb. un.
Vmax ([7]; 12.5 nM enzyme, initial rates adjusted by 1/5 as if 2.5 nM enzyme were used): 1.60 ± 0.04 AU/tick
kcat ([7]; 12.5 nM enzyme, n = 3 technical repeats, fitted to 30 points [5 min], initial rates adjusted by 1/5): 0.86 ± 0.02 s⁻¹
kcat relative to wild-type catalytic domain (in words) ([7]; D425A vs wild-type, DIFMUP): reduced by about a magnitude
AVERAGE rate ([7]; DIFMUP 13.169 uM): 2.032 arb. un.
AVERAGE rate ([7]; DIFMUP 19.753 uM): 2.945 arb. un.
AVERAGE rate ([7]; DIFMUP 29.630 uM): 3.933 arb. un.
AVERAGE rate ([7]; DIFMUP 44.444 uM): 4.201 arb. un.
AVERAGE rate ([7]; DIFMUP 66.667 uM): 5.009 arb. un.
AVERAGE rate ([7]; DIFMUP 100.000 uM): 5.979 arb. un.
Km [8]: 16.2 ± 1 µM
Vmax [8]: 60.9 ± 1.1 µM/min
Km [9]: 15.7 ± 0.5 µM
Vmax [9]: 6.1 ± 0.1 µM/min
Km [10]: 61.5 ± 8.7 µM

“And” between values parts separate entries of the source, which are not always exact repeats. Identical values can stand only once. Like-named read-outs stand apart in the source and are kept apart here.
